The values below come from PubChem BioAssay AID2528 (National Center for Advancing Translational Sciences (NCATS), 2010).

In all, about 350,000 compounds went through this assay and about 700 (0.2%) were called active. Calls come from the whole dose curve; as a rule, active = well fitted inhibition curve with a large enough effect; inconclusive = small, poorly fitted or top-dose-only effect; inactive = flat fitted curve, though single readings scatter. This is a selection; strong and weak results do not stand in their true shares.
Potency is the fitted concentration of half-maximal effect.

This test concerns the target RecQ-like DNA helicase BLM (Homo sapiens) (UniProt P54132). Kind of test: qHTS Assay for Inhibitors of Bloom's syndrome helicase (BLM).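 For activity change, negative = inhibition: plate controls were vehicle for no effect and no enzyme for full effect.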 Note: nearly all actives have a fitted effect of over 35% in size. Conditions: recombinant BLM DNA unwinding, fluorescence dequenching; series mostly up to 56.1 µM; activity change, negative = inhibition: at the top concentration.
Sequence of UniProt P54132 (P54132 whole entry, looked up): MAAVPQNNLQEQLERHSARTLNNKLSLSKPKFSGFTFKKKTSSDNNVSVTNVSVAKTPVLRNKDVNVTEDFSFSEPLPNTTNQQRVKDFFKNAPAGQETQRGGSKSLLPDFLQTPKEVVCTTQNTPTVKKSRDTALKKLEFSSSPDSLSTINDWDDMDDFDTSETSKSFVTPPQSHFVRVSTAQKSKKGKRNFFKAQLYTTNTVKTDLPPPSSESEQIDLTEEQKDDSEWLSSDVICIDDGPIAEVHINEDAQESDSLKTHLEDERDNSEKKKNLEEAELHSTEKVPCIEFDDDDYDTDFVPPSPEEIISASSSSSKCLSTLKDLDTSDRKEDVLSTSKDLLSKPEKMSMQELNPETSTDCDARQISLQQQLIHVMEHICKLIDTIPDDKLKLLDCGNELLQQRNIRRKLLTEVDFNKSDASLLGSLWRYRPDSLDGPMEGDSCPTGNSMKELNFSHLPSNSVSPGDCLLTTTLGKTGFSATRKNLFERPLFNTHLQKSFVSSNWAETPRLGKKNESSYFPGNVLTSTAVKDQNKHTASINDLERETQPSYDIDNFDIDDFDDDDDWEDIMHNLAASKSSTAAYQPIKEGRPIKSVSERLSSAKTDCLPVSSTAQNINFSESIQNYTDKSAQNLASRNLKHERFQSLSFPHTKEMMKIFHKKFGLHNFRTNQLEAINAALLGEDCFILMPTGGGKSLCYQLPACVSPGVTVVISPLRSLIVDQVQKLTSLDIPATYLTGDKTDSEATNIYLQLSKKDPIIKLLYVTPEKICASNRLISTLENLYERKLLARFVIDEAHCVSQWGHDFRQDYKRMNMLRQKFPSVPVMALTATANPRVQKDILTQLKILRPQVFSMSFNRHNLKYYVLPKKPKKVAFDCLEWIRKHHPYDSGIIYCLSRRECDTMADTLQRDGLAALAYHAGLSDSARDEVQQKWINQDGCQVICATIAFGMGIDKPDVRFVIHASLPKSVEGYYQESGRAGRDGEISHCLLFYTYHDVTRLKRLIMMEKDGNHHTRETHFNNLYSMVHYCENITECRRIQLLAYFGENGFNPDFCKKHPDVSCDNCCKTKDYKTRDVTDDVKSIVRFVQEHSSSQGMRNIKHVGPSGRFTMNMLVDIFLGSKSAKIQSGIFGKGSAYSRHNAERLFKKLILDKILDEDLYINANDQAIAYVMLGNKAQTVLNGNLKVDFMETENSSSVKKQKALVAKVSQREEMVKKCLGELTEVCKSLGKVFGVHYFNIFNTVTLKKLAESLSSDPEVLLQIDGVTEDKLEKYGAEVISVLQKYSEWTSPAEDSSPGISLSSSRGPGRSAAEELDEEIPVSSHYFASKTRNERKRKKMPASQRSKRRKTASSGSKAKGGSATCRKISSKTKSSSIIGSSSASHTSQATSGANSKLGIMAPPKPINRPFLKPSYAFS
Take `O=C1CCCN1CC#CCN1CCCC1`: the Potency result is “inactive”.
For `C[C@]12N[C@H](Cc3ccccc31)c1ccccc12`, the “activity change, negative = inhibition” value is inactive: 1.44%.
Consider `CCCN1CCCC2Cc3[nH]ncc3CC21` (stereo not given), for which the “activity change, negative = inhibition” value was inactive: 4.33%.
On to `COc1ccc(OC)c(N2C(=O)/C(=C/c3ccco3)C(=O)NC2=S)c1`, for which the Potency is active: 1.58 µM.
Still for that read-out and setting: as for `N[C@H](CCCCCP(=O)(O)O)C(=O)O`, the entry is “inactive”; as for `C[n+]1c2ccccc2nc2ccc(NCCO)cc21`, active: 17.8 µM.
On the same count and under the same terms, as for `COc1nc(C)nc(Cl)c1NC1=NCCN1`, the entry is “inactive”.
On the same count and under the same terms, as for `CCn1cc(C(=O)O)c(=O)c2ccc(C)nc21`, the entry is “inactive”.
Consider `CCC1C(=O)OC[C@H]1Cc1cncn1C` (stereo not given in full), for which the “activity change, negative = inhibition” value was inactive: -12.3%.
Still for that read-out and setting: as for `CC(C)(C)NCC(O)c1ccccc1Cl` (stereo not given), the figure is inactive: -7.82%; as for `C[C@@H](Cc1ccc(OCC(=O)O)cc1)NC[C@H](O)c1cccc(Cl)c1`, inactive: 6.59%.
For `O=C1NC(=S)N(c2ccc(F)cc2)C(=O)/C1=C/c1ccco1`, the Potency is active: 3.16 µM.
Same read-out and setting: as for `CCC1C(=O)OCC1Cc1cncn1C` (stereo not given), the entry is “inactive”.
As to `CC[C@@H]1CN2CCc3cc(OC)c(OC)cc3[C@@H]2C[C@@H]1C[C@H]1NCCc2cc(OC)c(OC)cc21`, the “activity change, negative = inhibition” value was inactive: -9.45%.
As to `CC(C)NC[C@@H](O)COc1cccc2[nH]ccc12`, the Potency result was “inactive”.
As for `CNCC[C@H](Oc1ccc(C(F)(F)F)cc1)c1ccccc1`, the Potency entry is “inactive”.
Consider `C=C1C(=O)O[C@@H]2C[C@@H](C)[C@@H]3C=CC(=O)[C@@]3(C)[C@@H](OC(=O)CC(=O)O[C@H]3[C@@H]4C(=C)C(=O)O[C@@H]4C[C@@H](C)[C@@H]4C=CC(=O)[C@]43C)[C@H]12`, for which the Potency was active: 22.4 µM.
Same read-out and setting: as for `O=C1C(=O)c2ccccc2-c2ccccc21`, the figure is active: 20 µM.
For `NC[C@@H]1O[C@H](O[C@H]2[C@H](O)[C@@H](O[C@H]3[C@H](O)[C@H](N)C[C@H](N)[C@H]3O[C@@H]3O[C@H](CO)[C@@H](O)[C@H](O)[C@@H]3N)O[C@H]2CO)[C@@H](N)[C@H](O)[C@@H]1O`, the “activity change, negative = inhibition” value was inactive: 0.484% [at 21.4 µM].
As to `CCCN(CCC)[C@@H]1CCc2cccc(O)c2C1`, the Potency result is “inactive”.
The same measure, in the same setting: as for `COC(=O)C1=C(C)NC(C)=C(C(=O)OC)C1c1ccccc1[N+](=O)[O-]`, the entry is “inactive”.
Same read-out and setting: in the case of `COc1ccc(OC)c(N2C(=O)NC(=O)/C(=C\c3ccc([N+](=O)[O-])s3)C2=O)c1` it was active: 15.8 µM.
Take `CNC(C)[C@H](O)c1ccccc1` (stereo not given in full): the “activity change, negative = inhibition” value was inactive: -12.7%.
As for `CCCCn1c(NC(=O)c2ccc(Br)o2)c(C(=O)OCC)c2nc3ccccc3nc21`, the Potency is active: 22.4 µM.
In the case of `CN1CC[C@@]23CCCC[C@@H]2[C@@H]1Cc1ccc(O)cc13`, the “activity change, negative = inhibition” value was inactive: 3.52%.
For the compound `C=CCN1CC[C@]23c4c5ccc(O)c4OC2C(=O)CC[C@@]3(O)C1C5` (stereo not given in full), the “activity change, negative = inhibition” value was inactive: -2.31%.
The same measure, in the same setting: as for `CNC(C)C(O)c1ccccc1` (stereo not given), the figure is inactive: 4.62%; as for `O=C(O[C@@H]1Cc2c(O)cc(O)cc2O[C@@H]1c1cc(O)c(O)c(O)c1)c1cc(O)c(O)c(O)c1`, inactive: -4.87%.
On to `CC[C@H]1CN2CCc3cc(OC)c(OC)cc3[C@@H]2C[C@@H]1C[C@H]1NCCc2cc(OC)c(OC)cc21`, for which the “activity change, negative = inhibition” value was inactive: -9.93%.
Same read-out and setting: in the case of `Cc1ccc(N2C(=O)NC(=O)/C(=C\c3ccoc3)C2=O)cc1` it was inactive: 3.4%; in that of `O=C1NC(=O)N(Cc2ccccc2)C(=O)/C1=C/C=C/c1ccco1`, inactive: -29.5%.
`Cc1ccc(N2C(=O)NC(=O)/C(=C/c3ccoc3)C2=O)cc1`: the Potency was active: 15.8 µM.
In the case of `CCNC(=O)[C@H]1O[C@@H](n2cnc3c(N)ncnc32)[C@H](O)[C@@H]1O`, the “activity change, negative = inhibition” value was inactive: -5.57%.
Turning to `Cc1cccc(C)c1NC1=NCCCS1`, the Potency result is “inactive”.
On to `COC(=O)N1CCN(C(=O)Cc2ccc(Cl)c(Cl)c2)[C@H](CN2CCCC2)C1`, for which the “activity change, negative = inhibition” value was inactive: 3.6%.
On to `C[N+]1(C)[C@@H]2CC[C@H]1CC(OC(=O)C(CO)c1ccccc1)C2` (stereo not given in full), for which the Potency entry was “inactive”.
On to `C[N+]1(C)CCC(OC(=O)C(c2ccccc2)c2ccccc2)CC1`, for which the “activity change, negative = inhibition” value was inactive: 3.43%.
Consider `N[C@H](CCCP(=O)(O)O)C(=O)O`, for which the Potency entry was “inactive”.
Consider `CN1C[C@H](C(=O)N[C@]2(C)O[C@]3(O)[C@H]4CCCN4C(=O)[C@H](Cc4ccccc4)N3C2=O)C[C@H]2c3cccc4[nH]cc(c34)C[C@@H]21`, for which the “activity change, negative = inhibition” value was inactive: -2.53% [at 21.4 µM].
On to `CCCCC/C=C\C/C=C\C/C=C\C/C=C\CCCC(=O)NCCO`, for which the Potency entry is “inactive”.
On to `CC(C)(O)C1C2OC(=O)C1[C@]1(O)CC3O[C@@]34C(=O)OC2[C@@]14C` (stereo not given in full), for which the “activity change, negative = inhibition” value is inactive: -11.4%.
On to `NC(=O)CN1CCCC1=O`, for which the Potency entry was “inactive”.
Take `CN1CC[C@@]2(C)c3cc(O)ccc3N(C)[C@@H]12`: the “activity change, negative = inhibition” value was inactive: -6.48%.
For the compound `CC[N+](C)(C)c1cccc(O)c1`, the Potency result is “inactive”.
As to `CCN1C[C@]2(C)CC[C@H](O)[C@@]34[C@@H]5CC6[C@@H](OC)C[C@@](O)([C@@H]5[C@@H]6O)[C@H](C[C@@H]23)[C@H]14`, the “activity change, negative = inhibition” value is inactive: 4.1% [at 21.4 µM].
On to `CCCCCCCCCCCCCC(=O)OC1C(C)[C@@]2(O)C(C=C(CO)C[C@]3(O)C(=O)C(C)=C[C@H]23)[C@@H]2C(C)(C)[C@]12OC(C)=O` (stereo not given in full), for which the “activity change, negative = inhibition” value is inactive: 0.433%.
In the case of `O=C1C(I)=CC(=C(c2cc(I)c(O)c(I)c2)c2ccccc2C(=O)O)C=C1I`, the Potency was active: 15.8 µM.
For the compound `NC(N)=NC(=O)c1nc(Cl)c(N)nc1N`, the Potency entry was “inactive”.
Consider `CC(C)C[C@H]1C(=O)N2CCC[C@@H]2[C@]2(O)O[C@](NC(=O)[C@@H]3C=C4c5cccc6[nH]c(Br)c(c56)C[C@H]4N(C)C3)(C(C)C)C(=O)N12`, for which the “activity change, negative = inhibition” value was inactive: -13.8%.
As for `COc1ccc(OC)c(N2C(=O)NC(=O)/C(=C/c3ccc([N+](=O)[O-])s3)C2=O)c1`, the Potency was active: 10 µM.
`S=C(NC1CCCCC1)N1CCC(c2cnc[nH]2)CC1`: the “activity change, negative = inhibition” value is inactive: -0.687%.
With `NC(N)=NOCC[C@H](N)C(=O)O`, the Potency entry is “inactive”.
For the compound `N[C@@H](Cn1oc(=O)[nH]c1=O)C(=O)O`, the “activity change, negative = inhibition” value was inactive: 1.48%.
`CC(C)CNC(=O)c1c(N)n(Cc2ccc3c(c2)OCO3)c2nc3ccccc3nc12`: the Potency was active: 10 µM.
Still for that read-out and setting: in the case of `CC[C@@H]1C(=O)OC[C@@H]1Cc1cncn1C` it was “inactive”.
Take `C=CCN1CC[C@]23c4c5ccc(O)c4O[C@H]2/C(=N/NC(=O)c2ccccc2)CC[C@@]3(O)[C@H]1C5`: the “activity change, negative = inhibition” value is inactive: -3.29%.
Same read-out and setting: as for `CC(=O)[C@]1(O)CCC2C3CCC4=CC(=O)CC[C@@]4(C)C3CC[C@]21C` (stereo not given in full), the figure is inactive: -8.79%.
Consider `CN1C[C@H](CNC(=O)OCc2ccccc2)C[C@H]2c3cccc4c3c(cn4C)C[C@@H]21`, for which the Potency result was “inactive”.
As to `CNC(=O)Oc1ccc2c(c1)C1(C)CCN(C)C1N2C` (stereo not given), the “activity change, negative = inhibition” value is inactive: 1.6%.
On the same count and under the same terms, in the case of `C[C@@H]1O[C@@H](O[C@H]2C[C@@H](O)[C@]3(CO)[C@H]4[C@H](O)C[C@]5(C)[C@@H](C6COC(=O)C6)CC[C@]5(O)[C@@H]4CC[C@]3(O)C2)[C@H](O)[C@H](O)[C@H]1O` (stereo not given in full) it was inactive: -1.31%.
